Experimental data published in the supplement of paper PMC11417369.
± gives the standard deviation of the averaged measurements. The list shows a part of the results.

These sequences were tested on PfAP2-G AP2 domain (GST-tagged) (assay: gcPBM binding intensity (ln(normalized median fluorescence intensity)); higher = stronger DNA binding).
Procedure, shortened: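 For binding intensity, the highest Masliner-normalised natural-log median intensity across replicate spots of either probe orientation was taken. Protein bound to the array was stained with Alexa488 anti-GST antibody and scanned at 488 nm. The protein, GST-tagged P. falciparum DNA-binding domains from E. coli at about 25 μg on average, had been applied for 1 h to an Agilent 4 × 180k array of primer-extended double-stranded 36-bp intergenic genomic probes and negative controls.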
In the case of “TTTCTTTCTATTGTTATATTTATAATAATTATAATT [XGTACX_negctrl_site215]”, the “gcPBM binding intensity (ln)” value is reported as 9.875 ± 0.035.
For “ATATTATCCCTATTTGCACACAAGAGTAATTTTTTA [CACACA_site3908]”, the “gcPBM binding intensity (ln)” value was 10.2 ± 0.2.
With “TTTTATAGAGTGTATACATGCAATACCACATAAAAT [TGCATGCA_site476]” the “gcPBM binding intensity (ln)” value was 10.4 ± 0.18.
For “ATATGGAAGAATTAAAGTACTTAAAAAAATGTCAGT [XGTACX_site6837]”, the “gcPBM binding intensity (ln)” value was 11.3 ± 0.79.
In the case of “AAGAAAATAAAATAAAATAAAATAAAATAAAAATAT [TGCATGCA_negctrl_site493]”, the “gcPBM binding intensity (ln)” value is reported as 9.46 ± 0.15.
In the case of TATAATTTATAAGTAGTGCATTTCTTTTCATTTTTA, the “gcPBM binding intensity (ln)” value is reported as 10.03 ± 0.057.
For “ATTGTCTTTTAATAGTGTACTTATTTTAAATATTGC [XGTACX_site8517]”, the “gcPBM binding intensity (ln)” value was 11.6 ± 0.94.
TTTCTAATATATAAAGTGCAATACCATTCAGAGTTA was tested, and the “gcPBM binding intensity (ln)” value was 10.2 ± 0.25.
With “TTATTATATATAAGTAGTACAAACAATTAAGAGATA [XGTACX_site4009]” the “gcPBM binding intensity (ln)” value was 11.6 ± 0.97.
For “TGATGATATAAAAACACACACATATAACATAATACT [CACACA_site6687]”, the “gcPBM binding intensity (ln)” value was 10 ± 0.057.
“TTTTTATTGTTGTACTTATATTATTTTATTATTAAA [GTGCAC_negctrl_site200]” was tested, and the “gcPBM binding intensity (ln)” value was 11.4 ± 0.88.
“CTAATATATATCAATTGTACATATTGAATAAGAACA [XGTACX_site4541]” was tested, and the “gcPBM binding intensity (ln)” value was 10.9 ± 0.49.
In the case of “GACTTTTCAATTTTTCGTACGTATAAATTGTATACA [XGTACX_site1488]”, the “gcPBM binding intensity (ln)” value is reported as 11.1 ± 0.7.
With “TTTTGTTACTTTTATGTGCACTTATAAAACGAACTA [GTGCAC_site9551]” the “gcPBM binding intensity (ln)” value was 10.7 ± 0.52.
In the case of “TATTAAACTGGACACACACACACACCCATATATAAA [CACACA_site4579]”, the “gcPBM binding intensity (ln)” value is reported as 10.9 ± 0.53.
With “TTTTGAAGTAACAAATAAATAAATAAATATATAAAA [GTGCAC_negctrl_site517]” the “gcPBM binding intensity (ln)” value was 10 ± 0.2.
With “ATTCATTCATATGTTACACACACACCGACACATAAA [CACACA_site5749]” the “gcPBM binding intensity (ln)” value was 10.3 ± 0.18.
“AAAATAATCACATATTGTACAAAAAAATTTATTAAA [XGTACX_site3239]” was tested, and the “gcPBM binding intensity (ln)” value was 10.9 ± 0.56.
With “TATATTAATATGAAAAGTACACATTCTATATATATA [XGTACX_site929]” the “gcPBM binding intensity (ln)” value was 11.4 ± 0.91.
With “ACATAATTTGATAATACACACAAATAATCTAAAATT [CACACA_site129]” the “gcPBM binding intensity (ln)” value was 10.01 ± 0.021.
In the case of “ATCATTTGCTCACGCACACACACATAAAAAGAAAAA [CACACA_site4349]”, the “gcPBM binding intensity (ln)” value is reported as 10.5 ± 0.52.
In the case of “ATTATGTACAAAATGGTGCAATATTATACATATATA [GTGCAC_site9468]”, the “gcPBM binding intensity (ln)” value is reported as 10.8 ± 0.57.
In the case of “AAAAATAGTATAAGTAGTACAACTGAAAAGTTATGT [XGTACX_site7488]”, the “gcPBM binding intensity (ln)” value is reported as 11.6 ± 0.86.
For “AAAAAATGGATGATCACACACTTCATAAAAATTGCA [CACACA_site5256]”, the “gcPBM binding intensity (ln)” value was 9.935 ± 0.035.
“AAAAAAAAAAAAAAATGTACCCATATATAAATATAT [XGTACX_site4061]” was tested, and the “gcPBM binding intensity (ln)” value was 11.2 ± 0.72.
With “TTTAATTATAAAACGTGTACATAATTATAATTACAT [XGTACX_site2206]” the “gcPBM binding intensity (ln)” value was 11.6 ± 1.
“TATATTTAGAATACAATCTTAAAGTTGAAATAAAAT [CACACA_negctrl_site1292]” was tested, and the “gcPBM binding intensity (ln)” value was 9.82 ± 0.18.
With “TTGTTAAATATTTATAAAATGAATTTAAAATGTACT [CACACA_negctrl_site665]” the “gcPBM binding intensity (ln)” value was 10.01 ± 0.092.
“ACATTCATAAAAAAAAGTACATTTTTTATAAAAGAA [XGTACX_site6197]” was tested, and the “gcPBM binding intensity (ln)” value was 11.4 ± 0.75.
With “ATATATCCAATATATATATATATATATATATATATA [CACACA_negctrl_site160]” the “gcPBM binding intensity (ln)” value was 9.93 ± 0.53.
In the case of “TTTATTATCTTATTCACACACATATATAAATATGTA [CACACA_site7369]”, the “gcPBM binding intensity (ln)” value is reported as 10.05 ± 0.085.
“AAAAAAAAAACATACACACACACAAATATTTATATA [CACACA_site437]” was tested, and the “gcPBM binding intensity (ln)” value was 9.85 ± 0.11.
With “AACATAATAAAAAAACGTACATAATTTTATATACAT [XGTACX_site6602]” the “gcPBM binding intensity (ln)” value was 11.4 ± 0.76.
For “TTCTTAGATTGTACAGTACACACCTTTAGAATGTTA [CACACA_site212]”, the “gcPBM binding intensity (ln)” value was 11.3 ± 0.74.
“AATTCATTTTACCCATGTACACAATTATATTTTATA [XGTACX_site4127]” was tested, and the “gcPBM binding intensity (ln)” value was 11.6 ± 0.83.
For “TACTACCACGGACATGCATGCACATTATTACTCTAA [TGCATGCA_site313]”, the “gcPBM binding intensity (ln)” value was 10.8 ± 0.52.
For “ATAATATAGAAACACACACACATATATATATACATT [CACACA_site555]”, the “gcPBM binding intensity (ln)” value was 9.92 ± 0.028.
“TTTATATATAAATATATATATATATATATATATATA [TGCATGCA_negctrl_site121]” was tested, and the “gcPBM binding intensity (ln)” value was 9.72 ± 0.28.
For “TAGTTTTTATATAGCACACATATTGTGATTATGTAT [CACACA_site1196]”, the “gcPBM binding intensity (ln)” value was 10.03 ± 0.064.
For “AAATTATGTGCCAATACACACACACCGATATATATA [CACACA_site8050]”, the “gcPBM binding intensity (ln)” value was 10.3 ± 0.19.
“AAGAAAAAATGATGAATAGAGATCAAATCTATATAT [TGCATGCA_negctrl_site29]” was tested, and the “gcPBM binding intensity (ln)” value was 9.58 ± 0.27.
In the case of “TACAAAATAAATGGAACATGCAAAAAAATTGATTAA [TGCATGCA_site790]”, the “gcPBM binding intensity (ln)” value is reported as 9.77 ± 0.26.
In the case of “AAAAAAAAAAAAAAAACACACATTTTAAGAAAAAAA [CACACA_site2926]”, the “gcPBM binding intensity (ln)” value is reported as 10.4 ± 0.16.
For “ATATGCTATTATATATGTACACACCAATTTATTTAT [XGTACX_site8364]”, the “gcPBM binding intensity (ln)” value was 11.5 ± 0.89.
